{
  "source": "paper PMC4336329",
  "about": "(PLoS ONE, 2015)",
  "note": "The campaign covered roughly 310,000 compounds. About 14,000 (4.5%) showed an effect of 50% or more. The effect is printed as a negative number. Some of the results follow.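 Also: peak tail current of the secondary pulse compared with the same well before compound.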",
  "data": [
    {"biological_target": "human ether-à-go-go-related gene (hERG) potassium channel (human, UniProt Q12809)", "sequence (Q12809 whole entry, looked up)": "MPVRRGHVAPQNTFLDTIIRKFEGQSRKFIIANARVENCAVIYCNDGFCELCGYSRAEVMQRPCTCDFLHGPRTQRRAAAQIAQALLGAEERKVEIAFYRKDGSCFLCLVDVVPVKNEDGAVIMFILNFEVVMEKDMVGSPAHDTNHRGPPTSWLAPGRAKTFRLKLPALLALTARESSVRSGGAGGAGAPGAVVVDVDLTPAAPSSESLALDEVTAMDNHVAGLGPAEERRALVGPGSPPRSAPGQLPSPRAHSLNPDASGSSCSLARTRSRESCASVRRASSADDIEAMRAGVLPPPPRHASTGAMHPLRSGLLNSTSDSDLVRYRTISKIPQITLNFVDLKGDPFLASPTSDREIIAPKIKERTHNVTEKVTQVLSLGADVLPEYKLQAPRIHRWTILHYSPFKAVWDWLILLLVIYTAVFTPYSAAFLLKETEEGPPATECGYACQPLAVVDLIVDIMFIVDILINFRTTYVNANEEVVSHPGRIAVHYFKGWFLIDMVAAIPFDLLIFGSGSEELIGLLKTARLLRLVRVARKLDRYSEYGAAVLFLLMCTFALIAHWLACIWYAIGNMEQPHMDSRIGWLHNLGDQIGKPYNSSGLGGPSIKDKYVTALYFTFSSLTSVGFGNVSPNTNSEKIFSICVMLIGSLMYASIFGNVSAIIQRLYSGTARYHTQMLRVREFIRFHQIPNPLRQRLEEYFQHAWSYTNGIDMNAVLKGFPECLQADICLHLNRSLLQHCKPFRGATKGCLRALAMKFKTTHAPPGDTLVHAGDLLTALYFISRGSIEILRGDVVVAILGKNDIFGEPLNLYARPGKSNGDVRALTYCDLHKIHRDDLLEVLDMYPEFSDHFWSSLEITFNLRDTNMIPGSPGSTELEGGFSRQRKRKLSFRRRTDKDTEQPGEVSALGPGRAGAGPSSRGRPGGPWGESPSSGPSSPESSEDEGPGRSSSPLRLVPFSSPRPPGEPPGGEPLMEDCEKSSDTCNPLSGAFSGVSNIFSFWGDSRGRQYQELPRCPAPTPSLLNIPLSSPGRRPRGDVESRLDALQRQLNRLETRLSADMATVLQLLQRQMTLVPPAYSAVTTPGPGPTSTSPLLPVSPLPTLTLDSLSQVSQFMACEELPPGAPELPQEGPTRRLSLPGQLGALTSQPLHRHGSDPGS", "test": "primary screen, population patch clamp on CHO cells stably expressing hERG", "units": {"hERG current change (%, negative = inhibition) at 10uM": "%"}, "values": [
      {"compound": "CCc1cccc(CC)c1NC(=O)COC(=O)/C(C#N)=C/c1ccc(OC)cc1", "hERG current change (%, negative = inhibition) at 10uM": -0.228},
      {"compound": "COc1ccc(CCn2c(-c3ccco3)nc3nc4ccccc4nc32)cc1", "hERG current change (%, negative = inhibition) at 10uM": -3.77},
      {"compound": "O=C(NCCC1=CCCCC1)C1CCCN(c2nc3ccccc3o2)C1", "note": "(stereo not drawn)", "hERG current change (%, negative = inhibition) at 10uM": -13.6},
      {"compound": "COCc1c(C(=O)OC)nnn1-c1ccc(C(F)(F)F)cc1[N+](=O)[O-]", "hERG current change (%, negative = inhibition) at 10uM": 6.31},
      {"compound": "CCN(c1ccccc1)S(=O)(=O)c1ccc(Oc2ccc([N+](=O)[O-])cc2)nc1", "hERG current change (%, negative = inhibition) at 10uM": -21},
      {"compound": "O=C(NC1CC1)C1=C[C@@H](c2coc3ccccc3c2=O)C[C@@H](OCc2ccc(CO)cc2)O1", "hERG current change (%, negative = inhibition) at 10uM": -20},
      {"compound": "Cc1ccc(-n2c(O)c(/C=N/c3ncc(Br)cc3Br)c(=O)[nH]c2=O)cc1", "hERG current change (%, negative = inhibition) at 10uM": 2.79},
      {"compound": "C=CCN1C(=O)/C(=C2/Sc3ccc(OC)cc3N2C)SC1=NCc1ccccc1", "hERG current change (%, negative = inhibition) at 10uM": 20.9},
      {"compound": "COc1ccc(NC(=O)CCCC(=O)c2ccccc2)cc1OC", "hERG current change (%, negative = inhibition) at 10uM": 11.4},
      {"compound": "Cc1ccc(N=CC=C2OC(C)(C)C(C)(C)O2)c(C)c1", "hERG current change (%, negative = inhibition) at 10uM": 7.04},
      {"compound": "CC1(/[N+]([O-])=C\\c2ccccc2F)CCCCC1=O", "note": "(stereo not drawn)", "hERG current change (%, negative = inhibition) at 10uM": 8.53},
      {"compound": "CCOC(=O)C1CCCN(Cc2cccc(Oc3ccccc3)c2)C1", "note": "(stereo not drawn)", "hERG current change (%, negative = inhibition) at 10uM": 0.824},
      {"compound": "C/C(N)=C(/C#N)C(=O)CSc1nnc(Nc2ccccc2C)s1", "hERG current change (%, negative = inhibition) at 10uM": -3.32},
      {"compound": "NC(=O)c1cc(-c2ccncc2)nc2ccc(Cl)cc12", "hERG current change (%, negative = inhibition) at 10uM": -11.8},
      {"compound": "CCN1CCc2c(OCC(=O)N3CCCc4ccccc43)cccc2C1=O", "hERG current change (%, negative = inhibition) at 10uM": -7.07},
      {"compound": "CSCC[C@@H](C(=O)Nc1ccc2c(c1)OCCO2)N1Cc2ccccc2C1=O", "hERG current change (%, negative = inhibition) at 10uM": -29.5},
      {"compound": "COc1ccc(CN2CCN(C3CCC3)CC2CCO)c(F)c1", "note": "(stereo not drawn)", "hERG current change (%, negative = inhibition) at 10uM": 9.71},
      {"compound": "c1ccc2c(-c3nc4ncccc4o3)cccc2c1", "hERG current change (%, negative = inhibition) at 10uM": -5.31},
      {"compound": "CC(C)N1CCc2c(sc(NC(=O)CN3C(=O)c4ccccc4C3=O)c2C(N)=O)C1.Cl", "hERG current change (%, negative = inhibition) at 10uM": -47.5},
      {"compound": "N#C/C(=C\\c1ccc(-c2ccc(S(=O)(=O)N3CCOCC3)cc2)o1)C(=O)NC1CC1", "hERG current change (%, negative = inhibition) at 10uM": -10.4},
      {"compound": "Cc1c(OCc2ccccc2)c(=O)ccn1Cc1ccc(Cl)cc1", "hERG current change (%, negative = inhibition) at 10uM": 6.79},
      {"compound": "C1=CC2CC1CC2CN1CCN(c2ccccc2)CC1", "note": "(stereo not drawn)", "hERG current change (%, negative = inhibition) at 10uM": -24.3},
      {"compound": "CCOC(=O)c1nc(Nc2cccc(C)c2)c2ccccc2n1", "hERG current change (%, negative = inhibition) at 10uM": -6.72},
      {"compound": "COc1ccc(CN(C)CC(=O)Nc2cccc(S(=O)(=O)N(C)c3ccccc3)c2)c(OC)c1", "hERG current change (%, negative = inhibition) at 10uM": -42.6},
      {"compound": "O=C(c1cccc(C(=O)N2CCC(O)(c3ccccc3)CC2)c1)N1CCC(O)(c2ccccc2)CC1", "hERG current change (%, negative = inhibition) at 10uM": -13.3},
      {"compound": "Cn1ncc2c(Nc3ccccc3Cl)nc(Cl)nc21", "hERG current change (%, negative = inhibition) at 10uM": 13.8},
      {"compound": "Cc1ccc2cc3c(N)c(C(=O)N4CC(=O)Nc5ccccc54)sc3nc2c1", "hERG current change (%, negative = inhibition) at 10uM": 30.7},
      {"compound": "CC(C)C(=O)Nc1cc(=O)[nH]c2ncnn12", "hERG current change (%, negative = inhibition) at 10uM": 5.86},
      {"compound": "Cc1nc(-c2ccccc2)sc1C(=O)Nc1ccc(S(N)(=O)=O)cc1", "hERG current change (%, negative = inhibition) at 10uM": 6.53},
      {"compound": "CC(Nc1nc(-c2ccccc2O)nc2ccccc12)c1ccccc1", "note": "(stereo not drawn)", "hERG current change (%, negative = inhibition) at 10uM": 5.73},
      {"compound": "Br.CCCn1c(=N)n(CC(=O)O)c2ccccc21", "hERG current change (%, negative = inhibition) at 10uM": -5.8},
      {"compound": "CCCCN(CCCC)C(=O)c1cn(CC)c2cc(N3CCN(C)CC3)c(F)cc2c1=O.Cl", "hERG current change (%, negative = inhibition) at 10uM": 3.58},
      {"compound": "Cc1cccc(NC(=S)NNC(=O)c2csc(C)c2)c1", "hERG current change (%, negative = inhibition) at 10uM": 15.9},
      {"compound": "CCOC(=O)c1ccccc1NC(=S)N1CCC(C)CC1", "hERG current change (%, negative = inhibition) at 10uM": -15.4},
      {"compound": "C[C@]12CCC(=O)C=C1CC[C@@H]1[C@@H]2CC[C@]2(C)C(=O)CC[C@@H]12", "hERG current change (%, negative = inhibition) at 10uM": -10.4},
      {"compound": "CCN(CCO)Cc1csc2c(Br)cccc12.Cl", "hERG current change (%, negative = inhibition) at 10uM": -29.8},
      {"compound": "CCN(CC(=O)Nc1ccccc1C(F)(F)F)C(=O)CCOc1ccc(C)cc1", "hERG current change (%, negative = inhibition) at 10uM": -13.1},
      {"compound": "COc1ccc(N(C(=O)Cn2nnc3ccccc32)C(C(=O)NCc2ccco2)c2cccnc2)cc1", "note": "(stereo not drawn)", "hERG current change (%, negative = inhibition) at 10uM": 9.77},
      {"compound": "CCn1nnnc1SCC(=O)N1c2ccccc2NC(=O)CC1C", "note": "(stereo not drawn)", "hERG current change (%, negative = inhibition) at 10uM": 3.95},
      {"compound": "Cc1ccc(-c2csc(NC(=S)NC(=O)c3cccs3)n2)cc1", "hERG current change (%, negative = inhibition) at 10uM": 11.3},
      {"compound": "CC(/C=N/NC(=O)c1sc(N)nc1C)=C\\c1ccccc1", "hERG current change (%, negative = inhibition) at 10uM": 13.2},
      {"compound": "CCCCOC(=O)NC1CCS(=O)(=O)C1", "note": "(stereo not drawn)", "hERG current change (%, negative = inhibition) at 10uM": 18.6},
      {"compound": "O=C(c1ccco1)N1CCc2ccccc21", "hERG current change (%, negative = inhibition) at 10uM": -3.68},
      {"compound": "Cc1ccc(NC(=O)CO/N=C(\\N)c2nonc2N)cc1", "hERG current change (%, negative = inhibition) at 10uM": 6.19},
      {"compound": "COc1ccc(C(c2nnnn2C(C)C)N2CCN(C(=O)c3ccco3)CC2)cc1", "note": "(stereo not drawn)", "hERG current change (%, negative = inhibition) at 10uM": -19},
      {"compound": "CCc1cccc(CC)c1-n1c(SCn2nnc3ccccc3c2=O)nnc1-c1cccnc1", "hERG current change (%, negative = inhibition) at 10uM": -21},
      {"compound": "CCOCCCNC(=O)C(c1ccc(C)cc1)N(Cc1cccs1)C(=O)CNC(C)=O", "note": "(stereo not drawn)", "hERG current change (%, negative = inhibition) at 10uM": -23.9},
      {"compound": "O=c1cc(C(F)(F)F)[nH]c2c(C(F)(F)F)cccc12", "hERG current change (%, negative = inhibition) at 10uM": 15.5},
      {"compound": "CC(=O)c1ccc(N2CCCCCC2)c(F)c1", "hERG current change (%, negative = inhibition) at 10uM": -6.96},
      {"compound": "CC(SCC(=O)O)c1nc2ccccc2[nH]1", "note": "(stereo not drawn)", "hERG current change (%, negative = inhibition) at 10uM": 31.7},
      {"compound": "COc1ccc(-c2nnc(SCC(=O)N3CCCC3)o2)cc1OC", "hERG current change (%, negative = inhibition) at 10uM": 15.9},
      {"compound": "COc1ccccc1NC(=O)C1CCCN(S(=O)(=O)c2ccc3[nH]c(=O)ccc3c2)C1", "note": "(stereo not drawn)", "hERG current change (%, negative = inhibition) at 10uM": -33.9},
      {"compound": "COC(=O)Cc1c(C)nc2nc(NCc3ccccc3OC)[nH]n2c1=O", "hERG current change (%, negative = inhibition) at 10uM": 11.2},
      {"compound": "CC(C)c1ccc(O)c(NC(=S)NC(=O)c2ccc3c(c2)OCO3)c1", "hERG current change (%, negative = inhibition) at 10uM": 1.62},
      {"compound": "COCCN(C(=O)C(=O)NC1CCCC1)C(C(=O)NC1CCCC1)c1ccccc1F", "note": "(stereo not drawn)", "hERG current change (%, negative = inhibition) at 10uM": 21.8},
      {"compound": "CCOC(=O)N1CCC(NC(=O)c2ccc(CS(=O)c3cccc(Cl)c3)o2)CC1", "note": "(stereo not drawn)", "hERG current change (%, negative = inhibition) at 10uM": 14.3},
      {"compound": "Cc1ccc(C)c2sc(NC(=O)c3nc4ccccc4s3)nc12", "hERG current change (%, negative = inhibition) at 10uM": 2.76}
    ]}
  ]
}
